From article PMC4336329 (PLoS ONE, 2015)
Out of some 310,000 compounds screened, about 14,000 (4.5%) showed an effect of 50% or more. Effects have a minus sign here. The list shows a part of the results.

Target: human ether-à-go-go-related gene (hERG) potassium channel (human, UniProt Q12809)
Assay: primary screen, population patch clamp on CHO cells stably expressing hERG
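Note: peak tail current of the secondary pulse compared with the same well before compound.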

human ether-à-go-go-related gene (hERG) potassium channel, sequence (Q12809 whole entry, looked up): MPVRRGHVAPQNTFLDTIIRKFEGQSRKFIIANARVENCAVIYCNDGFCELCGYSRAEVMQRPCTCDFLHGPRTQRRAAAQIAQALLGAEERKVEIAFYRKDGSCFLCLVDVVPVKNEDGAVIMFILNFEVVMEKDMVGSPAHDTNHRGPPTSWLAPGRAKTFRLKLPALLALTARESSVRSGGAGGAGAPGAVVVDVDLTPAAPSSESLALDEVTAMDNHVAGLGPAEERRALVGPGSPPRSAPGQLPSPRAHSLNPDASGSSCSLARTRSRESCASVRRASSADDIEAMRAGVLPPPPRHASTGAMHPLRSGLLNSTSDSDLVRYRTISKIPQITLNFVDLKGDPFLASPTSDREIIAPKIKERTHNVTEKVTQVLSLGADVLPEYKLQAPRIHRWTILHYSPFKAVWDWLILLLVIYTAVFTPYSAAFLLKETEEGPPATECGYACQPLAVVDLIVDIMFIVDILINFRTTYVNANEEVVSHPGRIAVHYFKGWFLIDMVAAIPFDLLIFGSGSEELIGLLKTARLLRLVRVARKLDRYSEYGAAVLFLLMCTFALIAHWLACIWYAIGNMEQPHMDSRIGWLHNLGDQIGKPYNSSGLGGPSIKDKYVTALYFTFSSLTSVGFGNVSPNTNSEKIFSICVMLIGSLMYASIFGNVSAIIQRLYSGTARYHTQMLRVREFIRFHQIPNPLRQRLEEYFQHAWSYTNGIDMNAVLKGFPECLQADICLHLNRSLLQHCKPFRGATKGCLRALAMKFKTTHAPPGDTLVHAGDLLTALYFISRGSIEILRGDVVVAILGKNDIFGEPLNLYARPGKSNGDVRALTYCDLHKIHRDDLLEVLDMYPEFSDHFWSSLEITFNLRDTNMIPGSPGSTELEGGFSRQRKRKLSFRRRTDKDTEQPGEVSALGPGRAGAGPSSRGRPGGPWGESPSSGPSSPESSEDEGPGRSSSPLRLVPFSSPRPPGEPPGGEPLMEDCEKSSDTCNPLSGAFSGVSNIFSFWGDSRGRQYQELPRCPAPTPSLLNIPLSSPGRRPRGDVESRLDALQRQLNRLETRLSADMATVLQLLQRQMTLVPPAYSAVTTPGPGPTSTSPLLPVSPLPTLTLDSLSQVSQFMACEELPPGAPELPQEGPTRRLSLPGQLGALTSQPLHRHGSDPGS

| Compound | hERG current change (%, negative = inhibition) at 10uM [%] |
| --- | --- |
| Cc1ccc(S(=O)(=O)N2C(=O)CCC2C(=O)O/N=C(\N)c2ccc([N+](=O)[O-])cc2)cc1 (stereo not drawn) | 17.8 |
| CCN(CCCNC(=O)CN(C)S(=O)(=O)c1cccc2nsnc12)c1cccc(C)c1 | -6.79 |
| CC(C)C[C@H](NC(=O)c1[nH]cnc1C(=O)N[C@@H](Cc1ccccc1)C(=O)OCc1ccccc1)C(=O)OCc1ccccc1 | 21.6 |
| Cc1noc(C)c1C(=O)OC(C)C(=O)N1CCc2ccccc21 (stereo not drawn) | 4.27 |
| O=C(Nc1ccc(N2CCCCC2)cc1)c1ccccn1 | 28.4 |
| CSc1cccc(N=C2C(=O)Nc3ccccc32)c1 | 2.41 |
| CCOC(=O)c1sc(N)c(C(=O)OCC)c1COC(=O)C1CC(=O)N(Cc2ccco2)C1 (stereo not drawn) | -19.3 |
| CC(=O)c1cccc(NC(=O)CCc2nnc3ccc(N4CCN(C)CC4)nn23)c1 | 15.3 |
| CCOc1ccc(C(NC(=O)c2ccco2)c2ccc(OC)c(OC)c2)cc1 (stereo not drawn) | -39.9 |
| O=C(CCC1CCCC1)N1CCN(C2CCCC2)CC1.O=C(O)C(=O)O | -46.6 |
| C=CCCC(=O)N1CCC(CCC(=O)NC2CC2)CC1 | 5.17 |
| CN=C(Nc1cc(C)nn1CCC#N)c1ccccc1F | -0.669 |
| CCOC(=O)N1CCN(Cc2nc3c(c(=O)n(C)c(=O)n3C)n2CCC(C)C)CC1 | -31.9 |
| CCc1nc2ccc(C(=O)NCc3ccc(C)o3)cc2nc1CC | -26.6 |
| Cc1ccc(OCCn2c(=S)[nH]c3ccccc32)c(C(C)C)c1 | 14 |
| Cc1cccc(CC2SC(N3CCN(c4ccccc4)CC3)=NC2=O)c1 (stereo not drawn) | -53.5 |
| CCC1Sc2ccc(S(=O)(=O)CCC(=O)Nc3ccc(OC(F)(F)F)cc3)cc2NC1=O (stereo not drawn) | 15.9 |
| Cc1ccc(NC(=O)N(Cc2cccnc2)Cc2ccco2)cc1C | -27.2 |
| C=CCOC(=O)C1=C[C@@H](c2ccc(Br)cc2)C[C@@H](OCc2ccc(CO)cc2)O1 | -14.7 |

| Compound | hERG current change (%, negative = inhibition) at 10uM [%] |
| --- | --- |
| O=C(O)CN1CCN(C(c2ccccc2)c2ccccc2)CC1 | 30.4 |
| Brc1ccc(-c2cn3c(n2)SCC3)cc1 | 11.2 |
| COc1cc(C(=O)N2CCN(C/C=C/c3ccccc3)CC2)cc(OC)c1C | -30.2 |
| C/C(=N/NC(=O)Cc1cccn1C)c1ccccc1 | 9.2 |
| Cc1ccnc(NS(=O)(=O)c2ccc(N3C(=O)c4ccccc4C3=O)cc2)n1 | -2.73 |
| CCCCn1cnc2sc(-c3ccccc3)cc2c1=O | -0.714 |
| Cc1ccccc1C(=O)Nc1c(-c2cccs2)c(=O)c2ccccc2n1C | 16 |
| CCOc1ccccc1NC(=O)Nc1ccc2c(c1)CCC2 | -34.5 |
| CC1(C)C(=O)OC(/C=C\c2ccccc2)C(C)(C)C1=O (stereo not drawn) | -0.637 |
| O=C(NCc1ccco1)c1ccc(NS(=O)(=O)c2cccc([N+](=O)[O-])c2)cc1 | 12 |
| CC(NC(=O)CSc1nc2c(cc1C#N)CN(C)CC2)c1ccccc1 (stereo not drawn) | -20.3 |
| O=C(NCc1ccccn1)c1ccc(Cl)s1 | 1.79 |
| Cn1c(C(=O)c2ccncc2)cc2ccccc21 | -21.3 |
| O=C1CN(C(=O)CSc2nc3c(cnn3-c3ccccc3)c(=O)[nH]2)c2ccccc2N1 | 1.82 |
| COc1c(Cl)cc(C(=O)NCc2ccco2)cc1Cl | -8.64 |
| NNC(=S)Nc1ccccc1Cl | -0.568 |
| COC(=O)C1=C(C(=O)OC)[C@@H]2N(Cc3ccccc3)c3ccccc3[C@@]23C[C@@H](C(=O)OC)N=C3N1 | -17.4 |
| Nc1nc(NCC2CCCO2)nc(Nc2cccc(F)c2)c1[N+](=O)[O-] (stereo not drawn) | 5.23 |
| Cc1no[n+]([O-])c1COc1cccc(/C=N/Nc2nncn2N)c1 | 8.32 |

| Compound | hERG current change (%, negative = inhibition) at 10uM [%] |
| --- | --- |
| COc1ccc(CCC(=O)NNC(=O)Nc2ccc(C(C)=O)cc2)cc1 | 16.8 |
| Cc1ccc(C(=O)NCc2ccc3c(c2)OCO3)cc1 | 1.64 |
| C=CCOc1c(Cl)cc(CNn2cn[nH]c2=S)cc1OC | 13.1 |
| O=C(Nc1cccc(Cl)c1)N(CCCN1CCOCC1)Cc1ccccc1F | -64.5 |
| Cc1cc(-c2nnc(CCC(=O)NCCc3ccccc3F)o2)no1 | -16.8 |
| C[C@]12CCC(=O)C=C1CC[C@@H]1[C@@H]2C(=O)C[C@]2(C)C(=O)CC[C@@H]12 | 7.99 |
| CCN1C(=O)Nc2cccc3cccc1c23 | 1.65 |
| COc1ccccc1Nc1ncnc2ccccc12 | -6.1 |
| CCN(C(=O)Cn1c(=O)oc2ccccc21)c1ccc(C)c(C)c1 | -6.52 |
| O=C(Nc1sc2c(c1C(=O)O)CCC2)c1ccccc1 | 5.69 |
| O=[N+]([O-])c1ccc(CN2CCC(Cc3ccccc3)CC2)cc1 | -55.1 |
| CC1=CC(c2ccccc2)n2nnnc2N1 (stereo not drawn) | 18.3 |
| CC(/C=N\NC(=O)CN1CCN(S(=O)(=O)c2ccc(C)cc2)CC1)=C\c1ccccc1 | -68.1 |
| Cc1cc(Cl)c(S(=O)(=O)NC(C(=O)O)c2ccccc2)cc1OCC(N)=O (stereo not drawn) | -0.102 |
| Cn1c(=O)oc2cc(S(=O)(=O)N3CCCc4ccccc43)ccc21 | -20.8 |
| COCC(=O)N1CCC(Oc2ccc(C(=O)NC(C)c3csc(C)n3)cc2)CC1 (stereo not drawn) | 10.4 |
| O=C(NCc1nc2ccccc2[nH]1)c1cccc(S(=O)(=O)N2CCCC2)c1 | 1.26 |
| COc1ccccc1-c1sc2cc3c(cc2c1C#CC1(O)CCCCC1)OCO3 | 13.2 |
| COc1ccc(-n2c(Cc3cccn3C)nnc2SCC(=O)Nc2ccc(C)cc2C)cc1 | -39.3 |
